Consider 91 molecules from PubChem BioAssay AID1508624 (National Center for Advancing Translational Sciences (NCATS), 2021).

The whole screen tested about 48,000 compounds, of which about 120 (0.25%) were called active. Not shown: some 4% with an inconclusive outcome. Calls come from the whole dose curve; as a rule, active = well fitted activation curve with a large enough effect; inconclusive = small, poorly fitted or top-dose-only effect, or another doubt; inactive = no such curve, though single readings can be large or run the other way. Some of the results follow.

The experiment in a line: Primary qHTS for Identification of Small Molecule Activators of Huntingtin-Antisense Promoter Activity. Note: nearly all actives have a fitted effect of over 55% in size. To be noted: HEK293 HTT-AS promoter firefly luciferase reporter, 24 h; series mostly up to 57.5 µM; activity change, positive = activation: at the top concentration. A digest of the protocol:
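Firefly luciferase readout (Dual-Glo, 10 min RT) after 24 h, 37 °C compound exposure (final up to 57.5 uM) of HEK293 reporter cells cultured 24 h beforehand; PTC124 at 50 uM final as control inhibitor; activity scaled vehicle 0%, zero RLU -100%.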
On the technique in general: Quantitative high-throughput screening tests each substance at several concentrations.
In the case of `CCOc1ccc(-n2c(SCC(=O)N3CCOCC3)nc3c([nH]c4ccccc43)c2=O)cc1`, the “activity change, positive = activation” value is inactive: -18%.
For the molecule `CC(C)(C)OC(=O)N1CCC(c2c(C(=O)N3CCN(C(=O)c4ccco4)CC3)cnn2-c2cccc(F)c2)CC1`, the “activity change, positive = activation” value is inactive: -0.961%.
In the case of `O=C(Nc1cccc(F)c1)c1ccc2snnc2c1` it was inactive: 5.81%; in that of `Cc1ccc(C)c(Nc2nnc(-n3nc(C)cc3C)c3ccccc23)c1`, inactive: -24.1%; in that of `CCN(c1ccccc1)S(=O)(=O)c1nnc(NC(=O)c2cccs2)s1`, inactive: -32.3%.
The same measure for `Cc1ccc(-n2nc(C(=O)N3CCC(C)CC3)c(=O)n(C)c2=O)cc1`: inactive: -5.67%; for `CCOc1ccccc1NC(=O)CSc1nc2c(oc3ccccc32)c(=O)n1-c1ccc(C)c(C)c1`: inactive: -21.3%.
In the case of `COc1cc(OC)c(OC)cc1/C=C/c1nc2cc3ccccc3cc2c(=O)n1-c1ccc(Cl)cc1` it was inactive: -22.5%.
Consider `CCOC(=O)CC(NS(=O)(=O)c1ccc2[nH]c3c(c2c1)CCCC3)c1ccccc1Cl` (stereo unspecified), for which the “activity change, positive = activation” value is inactive: -30.6%.
The same measure for `CC(C)OCCCNC(=O)c1ccc2c(c1)N(Cc1c(F)cccc1Cl)C(=O)c1ccccc1S2`: inactive: -38.9%; for `COc1ccc(-c2nn3c(=O)cc(CN4CCN(C(=O)c5ccc(C(C)(C)C)cc5)CC4)nc3s2)cc1`: inactive: -8.82%.
For the molecule `Cc1ccc(Oc2c(C(F)(F)F)oc3c(CN4CCCCC4C)c(O)ccc3c2=O)cc1` (stereo unspecified), the “activity change, positive = activation” value is inactive: -5%.
For the molecule `COc1ccc(C(=O)NCC(c2cccnc2)N2CCc3ccccc32)cc1` (stereo unspecified), the “activity change, positive = activation” value is inactive: -39.8%.
Consider `CCOC(=O)c1c(N)n(-c2ccc(C)c(Cl)c2)c2nc3ccccc3nc12`, for which the “activity change, positive = activation” value is inactive: -6.8%.
In the case of `O=C(CCC1N=C2c3ccccc3N=C(SCc3ccc(F)cc3)N2C1=O)NCc1cccs1` (stereo unspecified), the “activity change, positive = activation” value was inactive: -17.8%.
In the case of `CC1=C(c2ccc(C)c(C)c2)S(=O)(=O)N(Cc2ccc(C(=O)NCc3cccc(C)c3)cc2)C1=O` it was inactive: -21%; in that of `Cc1cccc(NC(=O)c2oc3ccccc3c2NC(=O)Cc2coc3c(C)c(C)ccc23)c1`, inactive: 6.18%; in that of `CCC(C(=O)Nc1cc(Cl)ccc1OC)n1nc(-c2ccccc2)ccc1=O` (stereo unspecified), inactive: -36.6%.
In the case of `CCOC(=O)C1=C(CS(=O)(=O)c2cccc(C(F)(F)F)c2)NC(=O)NC1c1cccc(OC)c1` (stereo unspecified) it was inactive: -25.3%; in that of `CC(C)c1ccc(NC(=O)C2CCCN(S(=O)(=O)c3cccc4cccnc34)C2)cc1` (stereo unspecified), inactive: 3.78%.
In the case of `COC(=O)c1c(-c2ccc(Cl)cc2)noc1N1CCN(c2ccc(C)cc2C)CC1`, the “activity change, positive = activation” value is inactive: -16.2%.
The same measure for `CCOC(=O)Cc1ccc(NC(=O)N2CCOc3ccc(C)cc32)cc1`: inactive: -6.36%.
Turning to `COc1ccc(OC)c(NC(=O)c2noc3c2CCCC3)c1`, the “activity change, positive = activation” value was inactive: 29.2%.
In the case of `CCOC(=O)c1cc(S(=O)(=O)N2CCN(c3ccccc3)CC2)[nH]n1` it was inactive: -22.8%; in that of `Cc1ccc(OC(C)C(=O)Nc2nonc2-c2ccc(Br)cc2)cc1C` (stereo unspecified), inactive: -11.8%.
In the case of `Cc1ccc2nc(N(Cc3cccnc3)C(=O)COc3ccccc3)sc2c1` it was inactive: 35.8%; in that of `CCOC(=O)Cn1c(=O)oc2cc(S(=O)(=O)N3CCN(c4cccc(C)c4C)CC3)ccc21`, inactive: -11.5%; in that of `O=C(Cn1cc(C(=O)c2ccco2)c2ccccc21)Nc1ccc(Br)cc1`, inactive: -5.51%.
As to `O=C(CSc1ccccc1)N1CCc2c([nH]c3ccccc23)C1c1ccc(F)cc1` (stereo unspecified), the “activity change, positive = activation” value is inactive: -27.4%.
In the case of `CC1CCN(S(=O)(=O)c2cn(CC(=O)Nc3cccc(C(F)(F)F)c3)c(=O)c3ccccc23)CC1` it was inactive: -28.2%; in that of `CSc1ncc2c(n1)-c1ccccc1N(Cc1ccc(Cl)cc1)S2(=O)=O`, inactive: -1.05%.
As to `CCOC(=O)c1cnn(-c2ccc(C(=O)Nc3cc(OC)c(OC)c(OC)c3)cc2)c1N`, the “activity change, positive = activation” value was inactive: -16.7%.
For the molecule `COc1cccc(C(=O)Nc2cccc(C(=O)OCc3cc(=O)n4nc(C5CC5)sc4n3)c2)c1`, the “activity change, positive = activation” value was inactive: 22.1%.
For `Nc1c(-c2nc(-c3cccs3)no2)nnn1-c1ccc(Cl)cc1`, the “activity change, positive = activation” value is inactive: 15.8%.
The same measure for `CCn1c(C(=O)NCCc2ccc(OC)c(OC)c2)cc2sc(Cl)cc21`: inactive: -27.4%; for `CCC1CCCCN1C(=O)Cn1c(=O)n(CCCCCC(=O)NCc2ccccc2)c(=O)c2sccc21` (stereo unspecified): inactive: 1.58%; for `CSc1ncc(Cl)c(C(=O)Nc2ccc(NC(C)=O)cc2)n1`: inactive: -18.3%.
In the case of `CCCCNc1nc(Oc2ccc(OCC)nn2)nc(N2CCOCC2)n1` it was inactive: 13.5%; in that of `COc1ccc(Cl)cc1NC(=O)c1c(NCc2ccc(C)o2)sc2c1CCCCC2`, inactive: -14.6%.
The same measure for `CCCn1c2ccccc2c2cnn(CC(=O)N(C)c3ccc(F)cc3)c(=O)c21`: inactive: -26.5%.
Take `COc1cccc(CSc2nc3ccccc3c3nc(CCn4c(C)nc5ccccc54)nn23)c1`: the “activity change, positive = activation” value is inactive: -18.3%.
In the case of `CN(C)CCN(C)C(=O)c1ccc(NC(=O)Nc2ccc(-c3nc(N4CCOCC4)c4ccn(CC(F)(F)F)c4n3)cc2)cc1` it was inactive: -46.8%.
The same measure for `COc1ccccc1CNC(=O)C1CCCN(c2nc3ccccc3n3cccc23)C1` (stereo unspecified): inactive: -45.7%.
In the case of `O=C(C1CC1)N1CCc2cc(Br)cc(S(=O)(=O)N3CCN(c4cccc(C(F)(F)F)c4)CC3)c21` it was inactive: -10.2%; in that of `COc1ccc(Cl)cc1C(=O)Nc1sc2c(c1C(=O)OC(C)C)CCCC2`, inactive: 12.1%.
For the molecule `CCCCOc1ccc(-c2nn(-c3ccccc3)cc2C2NC(=O)NC(C)=C2C(=O)OC)cc1` (stereo unspecified), the “activity change, positive = activation” value was inactive: -20%.
Turning to `CC(=O)N1CCc2cc(Br)cc(S(=O)(=O)N3CCN(c4cccc(C(F)(F)F)c4)CC3)c21`, the “activity change, positive = activation” value is inactive: 6.6%.
In the case of `CCCCN(C)c1nc2c(S(=O)(=O)c3ccc(CC)cc3)nnn2c2ccc(Cl)cc12` it was inactive: 17.1%; in that of `COc1ccccc1NC(=O)C1=C(C)Nc2c(C(=O)Nc3ccc(F)cc3)cnn2C1c1cccc([N+](=O)[O-])c1` (stereo unspecified), inactive: -24.5%; in that of `COc1cc(C(CC(=O)NCc2ccc(F)cc2)N2Cc3ccccc3C2=O)cc(OC)c1OC` (stereo unspecified), inactive: -25.5%.
With `COc1ccc(NC(=O)Cn2c(=O)n(-c3ccc(OC)c(OC)c3)c(=O)c3ccccc32)cc1`, the “activity change, positive = activation” value was inactive: -18.3%.
In the case of `Cc1noc(/C=C/c2cccs2)c1S(=O)(=O)N1CCC(C(=O)Nc2ccc(F)c(Cl)c2)CC1` it was inactive: -37.8%; in that of `CC(=O)c1ccc(N2CCN(c3ncnc4c3c(-c3ccccc3)cn4-c3cccc(C)c3)CC2)cc1`, inactive: -15.5%.
In the case of `COc1ccc(C(F)(F)F)cc1NC(=O)c1sc2nc(-c3cccs3)ccc2c1N` it was inactive: 11.1%; in that of `CCOC(=O)c1ccc(NC(=O)c2c(-c3c(F)cccc3Cl)noc2C)cc1`, inactive: -23.2%; in that of `CCC(=O)N1CCc2cc(Br)cc(S(=O)(=O)N3CCC(C(=O)NCCCOC(C)C)CC3)c21`, inactive: 2.81%.
In the case of `Cc1cccc(N2CCN(c3ncnc4c3nc3n4CCCCC3)CC2)c1C` it was inactive: -32.7%; in that of `CCOc1ccc(NC(=O)c2ccc(NC(=O)N3CCSc4ncccc43)cc2)cc1`, inactive: -20.2%.
`COC(=O)c1ccccc1NC(=O)c1ccc(COc2ccccc2Cl)o1`: the “activity change, positive = activation” value is inactive: 18%.
As for `COc1ccc(C2CC(=O)c3cc(-c4nc(-c5cccc(Cl)c5)cs4)c(=O)[nH]c3C2)cc1OC` (stereo unspecified), the “activity change, positive = activation” value is inactive: -6.78%.
Regarding `NC(N)=NC(N)=NCCc1ccccc1`, the activity change, positive = activation result was “inactive”.
The same measure for `CCc1ccccc1N1C(=O)N(Cc2ccc(C#N)cc2)c2ccccc2S1(=O)=O`: inactive: -37.8%.
`CC(C)Sc1oc(-c2cccs2)nc1S(=O)(=O)c1ccc(Cl)cc1`: the “activity change, positive = activation” value was inactive: -7.62%.
For `Cc1ccc(CNC(=O)c2ccc(Cn3c(=O)c4ccccc4n(CC(=O)Nc4ccc(C)cc4C)c3=O)cc2)cc1`, the “activity change, positive = activation” value is inactive: -2.18%.
Turning to `CCOc1ccc(OCC)c(NS(=O)(=O)c2cc(-c3cc(C)no3)ccc2C)c1`, the “activity change, positive = activation” value was inactive: -7.38%.
The same measure for `CCOc1ccc(S(=O)(=O)NCCc2sc3nc(-c4ccc(F)cc4)nn3c2C)cc1`: inactive: -30.5%.
Turning to `CCOc1ccc(CCNC(=O)c2cn(CC)c3ccc(S(=O)(=O)N4CCc5ccccc5C4)cc3c2=O)cc1OCC`, the “activity change, positive = activation” value was inactive: -19.1%.
The same measure for `O=C(Nc1ccccc1-c1cn2c(CN3CCNCC3)csc2n1)c1cnc2ccccc2n1`: inactive: -17%.
Consider `CCn1c2ccccc2c2cc(CN3CCN(Cc4ccccc4F)CC3)ccc21`, for which the “activity change, positive = activation” value was inactive: -18.3%.
For `CCOc1ccccc1NC(=O)C(=O)NCCc1sc(-c2cccc(F)c2)nc1C`, the “activity change, positive = activation” value is inactive: -6.34%.
The same measure for `COc1ccc(-c2cc(C(F)(F)F)nc(S(=O)(=O)CCCC(=O)Nc3cccc(O)c3)n2)cc1OC`: inactive: -41.7%; for `CCc1ccc(NCc2cc3cc4c(cc3n(CC(=O)Nc3ccc(C)cc3)c2=O)OCO4)cc1`: inactive: -7.65%.
`CCOc1ccc(NC(=O)C2CCCN(S(=O)(=O)c3cccc4nonc34)C2)cc1` (stereo unspecified): the “activity change, positive = activation” value was inactive: -3.83%.
Regarding `CC(=O)c1ccc(NC(=O)CSc2nnc3ccc(-c4ccc(Cl)cc4)nn23)cc1`, the “activity change, positive = activation” value is inactive: -0.305%.
For `Cc1oc2ncnc(N3CCCCC3)c2c1C(=O)N1CCN(c2cccc(C(F)(F)F)c2)CC1`, the “activity change, positive = activation” value was inactive: -32.7%.
On to `CCOc1ccc(NC(=O)NCc2c(-n3cccc3)sc3c2CCCC3)cc1`, for which the “activity change, positive = activation” value is inactive: -3.69%.
With `O=C(NCc1ccc2c(c1)CCN2C(=O)c1ccc(F)cc1)c1cc2ccccc2[nH]1`, the “activity change, positive = activation” value was inactive: -6.52%.
In the case of `COc1ccc(-c2[nH]c3ccccc3c2SCCNC(=O)c2cc(OC)c(OC)c(OC)c2)cc1` it was inactive: -38.5%.
In the case of `COc1ccccc1CNC(=O)CCC(=O)N1CC2CCCN2c2ccccc21` (stereo unspecified) it was inactive: 1.52%; in that of `c1ccc(CNc2nc3c(-c4ccccc4)nnn3c3ccccc23)cc1`, inactive: 17.5%.
The same measure for `COc1ccc(SCc2cc(=O)c3cc(Cl)ccc3[nH]2)cc1`: inactive: -37.6%.
Take `Cc1cccc(C)c1OCCn1c(C2CC(=O)N(c3cccc(Cl)c3)C2)nc2ccccc21` (stereo unspecified): the “activity change, positive = activation” value was inactive: -53.6%.
In the case of `COc1cccc(NC(=O)C2CCCN(S(=O)(=O)c3c(C)nn(C)c3C)C2)c1` (stereo unspecified) it was inactive: -23.2%; in that of `O=C(Cc1ccc(Cl)cc1)Nc1ccc2nn(-c3ccc(Cl)cc3)nc2c1`, inactive: 0.497%; in that of `CCCC1=Nc2cc(C(=O)NC(C)c3ccccc3)ccc2Sc2ccc(C)cc21` (stereo unspecified), inactive: -28.9%.
In the case of `Cc1nn(C(=O)c2c(F)cccc2F)c(C)c1S(=O)(=O)N1CCOCC1` it was inactive: -7.32%; in that of `O=C(CCN1N=C(c2ccccc2)CCC1=O)NCCc1ccc(Cl)cc1`, inactive: -15.2%; in that of `COc1ccc(CCNC(=O)c2ccc3c(c2)N(Cc2ccccc2F)C(=O)c2ccccc2S3(=O)=O)cc1OC`, inactive: 6.2%.
For the molecule `O=C(NCCc1ccccc1)c1cc(S(=O)(=O)N2CCCCC2)c[nH]1`, the “activity change, positive = activation” value was inactive: -23.3%.
The same measure for `CCOC(=O)c1cnc2c(ccc3ccccc32)c1Nc1cccc(OC)c1`: inactive: -17.6% [at 11.5 µM, percent change from vehicle, -100% = no light]; for `Cc1ccc(CN(Cc2ccco2)C(=O)COc2cc(C)c(Cl)c(C)c2)cc1`: inactive: -27.3%.
